Results reported in PubChem BioAssay (Tox21).
“And” between values parts separate entries of the source, which are not always exact repeats. Identical values can stand only once. This list was built around the results that the source calls inconclusive (neither active nor inactive); the mix of calls is not that of the screen. For some of these results: Potencies of inconclusive entries are doubtful fits and often do not repeat. The source made the active and inactive calls. Unless noted, calls follow the shape of the dose curve; as a rule, active = well fitted curve in the direction sought with a large enough effect in the repeat runs; inconclusive = weak or mixed curves; inactive = no such curve, though single readings can be large; an effect the other way counts as inactive or inconclusive.

Key:
[1] = qHTS assay to identify small molecule agonists of H2AX (AID 1224845; active = well fitted activation curve with a large enough effect in the signal ratio in the repeat runs, not every such curve was filed as active; inconclusive = weak or mixed curves; the % refers to the signal ratio); conditions: CHO-K1 phospho-H2AX Ser139 HTRF, 3 h; series mostly up to 154 µM
How it was run: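 Wild-type CHO-K1 cells plated overnight, then exposed 3 hr at 37C to compounds at 15 concentrations (0.76% DMSO). Lysed, then HTRF anti-pH2AX(S139)-cryptate/anti-H2AX-d2 detection after 24 hr at room temperature; emissions 665 and 620 nm.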

[2] = qHTS assay to identify small molecule agonists of H2AX - cell viability counter screen (AID 1224847; calls by dose curve; also: nearly all actives have a fitted effect of over 30% in size)
How it was run: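 After overnight plating of 1000 CHO-K1 cells per well, a 15-concentration compound series was applied for 3 hr at 37C. Luminescence from CellTiter-Glo, read following 30 min at room temperature, reflected cell viability.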

[3] = qHTS RealTime-Glo MT Cell Viability Assay in HepG2 cells - 8 hour (AID 1224873); also: nearly all actives have a fitted effect of over 55% in size
How it was run: (§1)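 HepG2 cells mixed with RealTime-Glo MT reagents (NanoLuc plus cell-permeant prosubstrate) were seeded at 600 cells/well, incubated 5 h at 37 C/5% CO2, then pinned with compounds in DMSO; nonlytic luminescence tracked viability during 40 h treatment.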

[4] = qHTS RealTime-Glo MT Cell Viability Assay in HEK293 cells - 40 hour (AID 1224874); conditions: RealTime-Glo luminescence; max response: stronger effect = lower value; also: nearly all actives have a fitted effect of over 50% in size
How it was run: (§2)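 600 HEK293 cells per well, dispensed already mixed with RealTime-Glo MT reagents. Compound dosing came 5 h later. The same wells were read for luminescence at 0, 8, 16, 24, 32 and 40 h of exposure at 37 C.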

[5] = A CellTox Green Cytotoxicity Assay to monitor cytotoxicity in HEK293 cells - 24 hour (AID 1224875); also: nearly all actives have a fitted effect of over 45% in size
How it was run: (§3)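 Dead-cell fluorescence measured kinetically: asymmetric cyanine dye, HEK293, 600 cells/well, 5 h settle, 23 nL cpd/DMSO, 37 C, reads 0–40 h every 8 h.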

[6] = A CellTox Green Cytotoxicity Assay to monitor cytotoxicity in HepG2 cells - 16 hour (AID 1224876); also: nearly all actives have a fitted effect of over 45% in size
How it was run: (§4)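 First, HepG2 cells (600/well) mixed with reagent were plated; second, after 5 h at 37 C they received compounds via pintool; third, fluorescence was measured at 0 h through 40 h at 8 h intervals.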

[7] = A CellTox Green Cytotoxicity Assay to monitor cytotoxicity in HepG2 cells - 24 hour (AID 1224878); also: nearly all actives have a fitted effect of over 45% in size
How it was run: as §4

[8] = A CellTox Green Cytotoxicity Assay to monitor cytotoxicity in HepG2 cells - 40 hour (AID 1224879); also: nearly all actives have a fitted effect of over 40% in size
How it was run: as §4

[9] = qHTS RealTime-Glo MT Cell Viability Assay in HEK293 cells - 0 hour (AID 1224880); also: nearly all actives have a fitted effect of over 45% in size
How it was run: as §2

[10] = A CellTox Green Cytotoxicity Assay to monitor cytotoxicity in HEK293 cells - 32 hour (AID 1224881); also: nearly all actives have a fitted effect of over 40% in size
How it was run: as §3

[11] = qHTS RealTime-Glo MT Cell Viability Assay in HEK293 cells - 32 hour (AID 1224868); also: nearly all actives have a fitted effect of over 50% in size
How it was run: (§5)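 Tox21 10K qHTS, HEK293, 600 cells/well, RealTime-Glo reagent co-dispensed with cells; 5 h preincubation, compound by pintool, 37 C, luminescence at 0–40 h.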

[12] = qHTS RealTime-Glo MT Cell Viability Assay in HepG2 cells - 24 hour (AID 1224867); also: nearly all actives have a fitted effect of over 50% in size
How it was run: (§6)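 Cells + NanoLuc/prosubstrate dispensed (600 cells/well) → 5 h at 37 C/5% CO2 → compounds in DMSO transferred → 40 h incubation at 37 C, luminescence read at 0, 8, 16, 24, 32, 40 h.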

[13] = qHTS RealTime-Glo MT Cell Viability Assay in HepG2 cells - 40 hour (AID 1224870); also: nearly all actives have a fitted effect of over 50% in size
How it was run: as §1

[14] = A CellTox Green Cytotoxicity Assay to monitor cytotoxicity in HEK293 cells - 40 hour (AID 1224871); also: nearly all actives have a fitted effect of over 45% in size
How it was run: as §3

[15] = qHTS RealTime-Glo MT Cell Viability Assay in HepG2 cells - 32 hour (AID 1224877); also: nearly all actives have a fitted effect of over 55% in size
How it was run: as §6

[16] = qHTS assay to identify small molecule antagonists of the estrogen related receptor (ERR) signaling pathway from Tox21 library (AID 1224848); also: nearly all actives have a fitted effect of over 50% in size
How it was run: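 First, 2,000 ERR cells per well were plated and held 6 h at 37 C/5% CO2. Next, compounds in DMSO were pinned in and left 18 h at 37 C. Finally, ONE-Glo was added and luminescence read after 30 min at room temperature.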

[17] = qHTS RealTime-Glo MT Cell Viability Assay in HEK293 cells - 16 hour (AID 1224872); also: nearly all actives have a fitted effect of over 50% in size
How it was run: as §5

Measured: Potency
Potency is read from the fitted curve at half-maximal effect; tags tell the direction and shape of the fitted curve or compound fluorescence and quenching.

CN1CCN(CCCN2c3ccccc3Sc3ccc(C(F)(F)F)cc32)CC1
active: [4] 23.9 µM | [5] 23.9 µM | [6] 23.9 µM | [7] 21.3 µM | [8] 23.9 µM | [10] 23.9 µM
inconclusive: [2] 55.2 µM [cytotoxic, single point] | [3] 26.8 µM [falling, partial curve, poor fit] | [9] 9.52 µM [rising, partial curve]
inactive: [1]

CC(C)(c1ccccc1)c1ccc(Nc2ccc(C(C)(C)c3ccccc3)cc2)cc1
inconclusive: [1] 63.5 µM [inhibitor] | [11] 38.9 µM [cytotoxic, partial curve, poor fit] | [3] 43.6 µM [falling, partial curve] and 49 µM [falling, partial curve]

CC1=C(/C=C/C(C)=C/C=C/C(C)=C/C=O)C(C)(C)CCC1
active: [12] 54.6 µM | [14] 38.7 µM | [7] 54.6 µM
inconclusive: [1] 79.6 µM [falling, partial curve, poor fit] | [13] 54.6 µM [falling, single point] | [3] 43.4 µM [falling, partial curve] | [6] 54.6 µM [activator, single point] | [15] 54.6 µM [cytotoxic, single point]

Cc1cc(Br)ccc1NC(=O)CCl
inconclusive: [1] 45 µM | [12] 21.9 µM [falling, partial curve] | [7] 54.9 µM [activator, single point] | [8] 54.9 µM [activator, single point] | [10] 19.5 µM [activator, full curve, poor fit]
active: [16] 15.4 µM | [11] 24.5 µM | [14] 30.9 µM | [17] 38.9 µM

CCCCCCCCCCCCCC[P+](CCCC)(CCCC)CCCC (tested in a mixture with another compound)
active: [11] 0.553 µM | [17] 8.76 µM
inconclusive: [1] 45.3 µM [activator]

CCN=c1cc2oc3cc(NCC)c(C)cc3c(-c3ccccc3C(=O)OCC)c-2cc1C
inconclusive: [1] 7.1 µM [fluorescent, full curve, poor fit] and 50.5 µM [fluorescent, partial curve]
active: [17] 8.68 µM and 6.17 µM | [3] 24.5 µM and 21.9 µM | [4] 614 nM and 550 nM | [6] 10.9 µM and 6.17 µM | [7] 19.4 µM and 5.49 µM

COCC(=O)Nc1c(I)c(C(=O)NCC(O)CO)c(I)c(C(=O)N(C)CC(O)CO)c1I (stereo unspecified)
inconclusive: [11] 10.7 µM [cytotoxic, single point] | [17] 10.7 µM [cytotoxic, single point] | [4] 10.7 µM [cytotoxic, single point] | [9] 10.7 µM [falling, single point]
inactive: [1]

NC(=O)n1c(O)c(C(=O)c2cccs2)c2cc(Cl)ccc21
inactive: [3]
inconclusive: [1] 34.8 µM [falling, partial curve] | [9] 23.9 µM [falling, partial curve, poor fit]

Nc1ccc2c(c1)CN1C(=O)c3ccccc3C1=N2
active: [11] 4.65 µM | [5] 10.4 µM | [6] 10.4 µM
inconclusive: [1] 19.1 µM [falling, partial curve] | [17] 10.4 µM [cytotoxic, partial curve]

Oc1cc2ccccc2c2ccccc12
inconclusive: [9] 0.871 µM [falling, full curve]
active: [1] 17.9 µM | [12] 11 µM | [11] 11 µM | [13] 11 µM | [17] 6.92 µM | [5] 19.5 µM | [6] 13.8 µM | [10] 17.4 µM
